Measured values as given in publication PMC7688343, “GDF6-CD99 Signaling Regulates Src and Ewing Sarcoma Growth” (Cell reports, 2020).
Results are given in words; binding and its absence hold for the method and conditions named. In cells and extracts the contact can be indirect. Some entries that bind do so weakly or less than the wild type. Sequences can lack the tags named with a protein.

Sequences of proteins named here, by UniProt entry; tags and fusion partners are left off.
UniProt P41240: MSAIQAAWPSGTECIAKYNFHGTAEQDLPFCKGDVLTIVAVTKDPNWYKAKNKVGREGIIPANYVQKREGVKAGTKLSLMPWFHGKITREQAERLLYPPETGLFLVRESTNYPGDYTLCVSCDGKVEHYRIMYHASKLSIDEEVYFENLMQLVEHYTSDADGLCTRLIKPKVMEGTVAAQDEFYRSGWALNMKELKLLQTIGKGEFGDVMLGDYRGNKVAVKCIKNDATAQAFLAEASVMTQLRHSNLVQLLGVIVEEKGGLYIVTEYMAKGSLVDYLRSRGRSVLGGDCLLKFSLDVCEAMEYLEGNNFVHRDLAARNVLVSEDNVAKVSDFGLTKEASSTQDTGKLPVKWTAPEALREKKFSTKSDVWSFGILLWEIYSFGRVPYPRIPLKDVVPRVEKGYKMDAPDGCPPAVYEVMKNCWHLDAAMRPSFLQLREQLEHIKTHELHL

Assays:
[1] = target: T1, GFP-YQKKK (human); assay: co-IP; GFP fusions of CD99 intracellular fragments transfected in 293T cells; anti-GFP immunoprecipitation, anti-CSK immunoblot of endogenous CSK
T1 sequence: YQKKK

[2] = target: T2, GFP-YQKKKLCF (human); assay: as above
T2 sequence: YQKKKLCF

[3] = target: T3, GFP-human CD99 intracellular domain (148-185) (human) (UniProt P14209); assay: as above
T3 sequence: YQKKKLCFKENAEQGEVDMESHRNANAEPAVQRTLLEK

[4] = target: T4, GFP-human CD99 intracellular domain lacking the YQKKKLCF sequence (human) (UniProt P14209); assay: as above
T4 sequence: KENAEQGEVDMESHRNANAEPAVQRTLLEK

[5] = target: T5, C-terminally FLAG-tagged human CD99 (human) (UniProt P14209); assay: co-IP; C-terminally FLAG-tagged human CD99, mouse CD99 or human CD99L2 transfected in 293T cells; anti-FLAG immunoprecipitation, anti-CSK immunoblot of endogenous CSK
T5 sequence: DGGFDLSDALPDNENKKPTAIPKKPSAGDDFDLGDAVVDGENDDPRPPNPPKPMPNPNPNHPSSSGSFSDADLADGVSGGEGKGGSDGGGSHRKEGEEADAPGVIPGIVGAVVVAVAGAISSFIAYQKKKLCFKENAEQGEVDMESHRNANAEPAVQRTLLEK

[6] = target: T6, C-terminally FLAG-tagged human CD99L2 (human) (UniProt Q8TCZ2); assay: as above
T6 sequence: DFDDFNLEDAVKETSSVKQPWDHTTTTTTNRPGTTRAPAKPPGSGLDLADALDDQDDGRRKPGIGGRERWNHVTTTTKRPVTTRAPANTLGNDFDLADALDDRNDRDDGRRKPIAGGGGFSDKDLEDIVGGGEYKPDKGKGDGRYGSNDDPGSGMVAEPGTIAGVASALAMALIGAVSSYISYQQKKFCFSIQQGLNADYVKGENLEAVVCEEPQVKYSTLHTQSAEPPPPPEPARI

[7] = target: T7, C-terminally FLAG-tagged mouse CD99 (mouse) (UniProt Q8VCN6); assay: as above
T7 sequence: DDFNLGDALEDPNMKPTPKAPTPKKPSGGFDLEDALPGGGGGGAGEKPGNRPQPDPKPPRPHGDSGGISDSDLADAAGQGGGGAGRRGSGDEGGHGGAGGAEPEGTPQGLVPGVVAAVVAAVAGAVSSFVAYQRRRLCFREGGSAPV

binding [1]: binds
binding [2]: binds
binding [3]: binds
binding [4]: no binding
binding [5]: binds
binding [6]: binds
binding [7]: binds
Substance: endogenous CSK (293T cells) (from UniProt P41240 1-450) (enzyme)
